Here are results for 40 sequences from article PMC12820563.

The other results are listed elsewhere or left out. The list includes weakly bound sequences.

The assay deals with T1, MBP-FoxP3dN (UniProt Q99JB6).
T1 sequence: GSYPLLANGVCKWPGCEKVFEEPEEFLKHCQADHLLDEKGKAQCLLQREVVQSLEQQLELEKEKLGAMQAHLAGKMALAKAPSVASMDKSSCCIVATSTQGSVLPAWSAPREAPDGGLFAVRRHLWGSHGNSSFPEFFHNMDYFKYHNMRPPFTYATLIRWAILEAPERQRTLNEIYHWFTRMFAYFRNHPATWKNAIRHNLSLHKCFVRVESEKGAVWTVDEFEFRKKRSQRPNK
Nature of the assay: PD-seq (MBP pull-down with sequencing). The conditions noted are these: 20 mM Tris-HCl pH 7.5, 100 mM NaCl, 1.5 mM MgCl2, 0.4 uM protein, 0.1 uM dsDNA library, 30 min, room temperature, amylose pull-down; high values mean tight binding; double strand, one strand shown.
For the sequence “GATGATTGTTCTCCCAGCTGATGAATTTCGCAGTTCGAGTAAACAAATTTTCCTAATCTTTCTGTTCAAGCGCCATCTAC”, the binding signal (RPM ratio (pull-down/input)) amounted to 1.36.
For the sequence “GATGATTGTTCTCCCAGCTGATGAATTCAGCCAATCGAGTAAACAAATTTTCCTAATCTTTCTGTTCAAGCGCCATCTAC”, the binding signal (RPM ratio (pull-down/input)) was 0.533.
For “GATGATTGTTCTCCCAGCTGATGAATTGTGATTGTCGAGTAAACAAATTTTCCTAATCTTTCTGTTCAAGCGCCATCTAC”, the binding signal (RPM ratio (pull-down/input)) was found to be 4.91.
With “GATGATTGTTCTCCCAGCTGATGAATTCTCGGGTTCGAGTAAACAAATTTTCCTAATCTTTCTGTTCAAGCGCCATCTAC” the figure was 0.269.
The same measure for “GATGATTGTTCTCCCAGCTGATGAATTTATATTTTCGAGTAAACAAATTTTCCTAATCTTTCTGTTCAAGCGCCATCTAC”: 1.28.
The same measure for “GATGATTGTTCTCCCAGCTGATGAATTATCGACCTCGAGTAAACAAATTTTCCTAATCTTTCTGTTCAAGCGCCATCTAC”: 0.283; for “GATGATTGTTCTCCCAGCTGATGAATTGGAGTTGTCGAGTAAACAAATTTTCCTAATCTTTCTGTTCAAGCGCCATCTAC”: 0.805.
With “GATGATTGTTCTCCCAGCTGATGAATTTTCTATTTCGAGTAAACAAATTTTCCTAATCTTTCTGTTCAAGCGCCATCTAC”, the binding signal (RPM ratio (pull-down/input)) was found to be 0.261.
The same measure for “GATGATTGTTCTCCCAGCTGATGAATTCCCGCCCTCGAGTAAACAAATTTTCCTAATCTTTCTGTTCAAGCGCCATCTAC”: 0.46; for “GATGATTGTTCTCCCAGCTGATGAATTCTGTATATCGAGTAAACAAATTTTCCTAATCTTTCTGTTCAAGCGCCATCTAC”: 5.72.
Regarding “GATGATTGTTCTCCCAGCTGATGAATTTCCGATGTCGAGTAAACAAATTTTCCTAATCTTTCTGTTCAAGCGCCATCTAC”, the binding signal (RPM ratio (pull-down/input)) was determined as 0.35.
With “GATGATTGTTCTCCCAGCTGATGAATTCGGTATCTCGAGTAAACAAATTTTCCTAATCTTTCTGTTCAAGCGCCATCTAC” the figure was 3.08; with “GATGATTGTTCTCCCAGCTGATGAATTCCCGTTATCGAGTAAACAAATTTTCCTAATCTTTCTGTTCAAGCGCCATCTAC”, 0.53.
In the case of “GATGATTGTTCTCCCAGCTGATGAATTGATTGACTCGAGTAAACAAATTTTCCTAATCTTTCTGTTCAAGCGCCATCTAC”, the binding signal (RPM ratio (pull-down/input)) is 2.07.
“GATGATTGTTCTCCCAGCTGATGAATTGTATCGTTCGAGTAAACAAATTTTCCTAATCTTTCTGTTCAAGCGCCATCTAC”: the binding signal (RPM ratio (pull-down/input)) was determined as 1.84.
The same measure for “GATGATTGTTCTCCCAGCTGATGAATTTCTGCGTTCGAGTAAACAAATTTTCCTAATCTTTCTGTTCAAGCGCCATCTAC”: 1.57.
As for “GATGATTGTTCTCCCAGCTGATGAATTACGACGGTCGAGTAAACAAATTTTCCTAATCTTTCTGTTCAAGCGCCATCTAC”, the binding signal (RPM ratio (pull-down/input)) was determined as 0.331.
For the sequence “GATGATTGTTCTCCCAGCTGATGAATTGACGGATTCGAGTAAACAAATTTTCCTAATCTTTCTGTTCAAGCGCCATCTAC”, the binding signal (RPM ratio (pull-down/input)) is 0.323.
The same measure for “GATGATTGTTCTCCCAGCTGATGAATTATCGCTTTCGAGTAAACAAATTTTCCTAATCTTTCTGTTCAAGCGCCATCTAC”: 0.99; for “GATGATTGTTCTCCCAGCTGATGAATTGGGTTGGTCGAGTAAACAAATTTTCCTAATCTTTCTGTTCAAGCGCCATCTAC”: 0.989.
Turning to “GATGATTGTTCTCCCAGCTGATGAATTGACTTTCTCGAGTAAACAAATTTTCCTAATCTTTCTGTTCAAGCGCCATCTAC”, the binding signal (RPM ratio (pull-down/input)) amounted to 0.418.
Regarding “GATGATTGTTCTCCCAGCTGATGAATTGTGGCCGTCGAGTAAACAAATTTTCCTAATCTTTCTGTTCAAGCGCCATCTAC”, the binding signal (RPM ratio (pull-down/input)) worked out at 1.2.
With “GATGATTGTTCTCCCAGCTGATGAATTCTGTACCTCGAGTAAACAAATTTTCCTAATCTTTCTGTTCAAGCGCCATCTAC” the figure was 1.31; with “GATGATTGTTCTCCCAGCTGATGAATTACTCAAATCGAGTAAACAAATTTTCCTAATCTTTCTGTTCAAGCGCCATCTAC”, 0.262.
The same measure for “GATGATTGTTCTCCCAGCTGATGAATTGTCCGCTTCGAGTAAACAAATTTTCCTAATCTTTCTGTTCAAGCGCCATCTAC”: 0.3; for “GATGATTGTTCTCCCAGCTGATGAATTTACACAATCGAGTAAACAAATTTTCCTAATCTTTCTGTTCAAGCGCCATCTAC”: 1.5.
The same measure for “GATGATTGTTCTCCCAGCTGATGAATTCTTTGACTCGAGTAAACAAATTTTCCTAATCTTTCTGTTCAAGCGCCATCTAC”: 0.216; for “GATGATTGTTCTCCCAGCTGATGAATTGGATAGGTCGAGTAAACAAATTTTCCTAATCTTTCTGTTCAAGCGCCATCTAC”: 0.342; for “GATGATTGTTCTCCCAGCTGATGAATTCAAACGATCGAGTAAACAAATTTTCCTAATCTTTCTGTTCAAGCGCCATCTAC”: 0.287.
In the case of “GATGATTGTTCTCCCAGCTGATGAATTCGGGGTCTCGAGTAAACAAATTTTCCTAATCTTTCTGTTCAAGCGCCATCTAC”, the binding signal (RPM ratio (pull-down/input)) came to 0.661.
The same measure for “GATGATTGTTCTCCCAGCTGATGAATTGTTTGAATCGAGTAAACAAATTTTCCTAATCTTTCTGTTCAAGCGCCATCTAC”: 1.05; for “GATGATTGTTCTCCCAGCTGATGAATTAGGGAGCTCGAGTAAACAAATTTTCCTAATCTTTCTGTTCAAGCGCCATCTAC”: 0.24.
With “GATGATTGTTCTCCCAGCTGATGAATTAGTTAACTCGAGTAAACAAATTTTCCTAATCTTTCTGTTCAAGCGCCATCTAC” the figure was 0.747.
The same measure for “GATGATTGTTCTCCCAGCTGATGAATTATTCCCATCGAGTAAACAAATTTTCCTAATCTTTCTGTTCAAGCGCCATCTAC”: 0.334; for “GATGATTGTTCTCCCAGCTGATGAATTCCGACTGTCGAGTAAACAAATTTTCCTAATCTTTCTGTTCAAGCGCCATCTAC”: 0.952.
For “GATGATTGTTCTCCCAGCTGATGAATTAAGTACCTCGAGTAAACAAATTTTCCTAATCTTTCTGTTCAAGCGCCATCTAC”, the binding signal (RPM ratio (pull-down/input)) amounted to 0.612.
The same measure for “GATGATTGTTCTCCCAGCTGATGAATTTGTGGCATCGAGTAAACAAATTTTCCTAATCTTTCTGTTCAAGCGCCATCTAC”: 3.35; for “GATGATTGTTCTCCCAGCTGATGAATTAGTGACATCGAGTAAACAAATTTTCCTAATCTTTCTGTTCAAGCGCCATCTAC”: 0.993.
With “GATGATTGTTCTCCCAGCTGATGAATTAATGGTTTCGAGTAAACAAATTTTCCTAATCTTTCTGTTCAAGCGCCATCTAC” the figure was 0.958; with “GATGATTGTTCTCCCAGCTGATGAATTTTCCCTCTCGAGTAAACAAATTTTCCTAATCTTTCTGTTCAAGCGCCATCTAC”, 0.249.
